{"source": "patent US12667625B2", "about": "“Antibody-drug conjucates and their uses for the treatment of cancer” (INATHERYS, priority 2018, dated 2026)", "molecules": {"B1": {"name": "INA01-SDV1: ADC: anti-TfR antibody mAb1 (INA01), APN linker of formula (IV), valine-citrulline, para-aminobenzyl ester, MMAE (conjugate)", "heavy": "QVQLVQSGPELKKPGASVKVSCKASGYTFTNQGMNWVKQAPGKGLKWMGWINTYTGEPINADDFKGRFVISLDTSASTAYLQISSLKAEDTAVYFCVREGWDSMDYWGQGTSVTVSSASTKGPSVFPLAPCSRSTSESTAALGCLVKDYFPEPVTVSWNSGALTSGVHTFPAVLQSSGLYSLSSVVTVPSSSLGTKTYTCNVDHKPSNTKVDKRV[human IgG4 Fc with S228P (EU numbers) not shown]", "light": "QIVLTQSPATLSVSPGERATLSCSASSSVNYMHWFQQKPGQSPRLLIYSTSNRATGIPARFSGSGSGTSYTLTISSLEPEDFAVYYCQQRSSYPLTFGQGTKLEIKRTVAAPSVFIFPPSDEQLKSGTASVVCLLNNFYPREAKVQWKVDNALQSGNSQESVTEQDSKDSTYSLSSTLTLSKADYEKHKVYACEVTHQGLSSPVTKSFNRGEC", "modifications": "non-natural residues", "notes": "ADC: anti-TfR antibody mAb1 (INA01), APN linker of formula (IV), valine-citrulline, para-aminobenzyl ester, MMAE"}}, "key": {"[1]": {"system": "Ramos cell line", "assay": "Inhibition of cell proliferation, CellTiter-Glo cell viability assay, Ramos", "format": "cell-based", "conditions": "96 hours, from 0 to 20 µg/ml", "experimental": "(§1) Inhibition of cell proliferation was measured by using the cell viability assay CellTiter-Glo® by Promega according the manufacturer protocol. Briefly, cells were plated in 48-wells plate and incubated during 96 hours in presence or not of increasing concentration of INA01-SDV1 (from 0 to 20 µg/ml)."}, "[2]": {"assay": "Toxicology analysis in wild-type B6 and TfR/Tf 2Ki mice, pathological analysis of organs", "format": "in vivo", "conditions": "5 injections at 3 mg/kg every 4 days, IP; for pathological analysis, Heart / pathological analysis, Liver: 3 mg/kg", "experimental": "Toxicology analysis of the INA01-SDV #1 was assessed in wild-type B6 (WT) mice and CD71/transferrin double knocking mice (TfR/Tf 2Ki). Mice were injected IP with 5 injections of INA01-SDV #1 at 3 mg/kg every 4 days and sacrificed two days after the last injection.\nFIG. 6 represents the macroscopic organ analysis in WT (FIG. 6A) and TfR/Tf 2Ki mice (FIG. 6B). Table 7 below represents the independent pathological analysis of each organ depicted in FIGS. 6A and 6B."}, "[3]": {"system": "THP-1 cell line (CD71+)", "assay": "Comparative binding on THP-1 cell line by flow cytometry", "conditions": "biotinylated antibodies, serial dilutions 5 to 0.05 ug/mL, streptavidin Alexa F488", "experimental": "(§2) Serial dilutions (5 to 0.05 ug/mL) of both biotinylated antibodies (antibody A24 and antibody of ADC INA01-SDV1) were performed and incubated on THP-1 and MEC-1 cell lines. The binding of the diluted antibodies was detected by Flow cytometry using streptavidin Alexa F488 (available at ThermoFisher scientific)."}, "[4]": {"system": "peripheral blood mononuclear cells (PBMC)", "assay": "TNF-α secretion by PBMC (ELISA)", "format": "cell-based, human", "conditions": "24 hours, air-dried, wet-coated or aqueous, 0.1, 1 or 10 μg/ml", "experimental": "To assess if INA01-SDV #1 could induce a cytokine release syndrome (CRS) in patients, TNF-α secretion by peripheral blood mononuclear cells (PBMC) was tested. TNF-α production was tested after incubation of PBMC with INA01-SDV #1 in three different conditions which represent different concentration of the ADC: highly coated (air-dried), lower coated (wet-coated) or in solution (aqueous).\nPBMC were separated by Ficoll and suspended in culture medium with INA01-SDV #1 Air-dried, wet-coated or aqueous at 0.1, 1 or 10 μg/ml as previously reported for several activation procedures (Findlay L et al. J. Immunol. Meth 2008; Stebbings R et al. J. Immunol. 2007). After incubation for 24 hours at 37° C., TNF-α was assessed by enzyme-linked immunosorbent assay (ELISA). A DuoSet ELISA Development kit that contains the basic components required for the development of sandwich ELISAs to measure natural and recombinant human TNF-alpha were used.\nINA01-SDV #1 is presented to PBMC in three different protocols: Air-dried, wet-coated or aqueous. • Air-dried: INA01-SDV #1 was added at 5× working concentration in 50 ul (for a final concentration of 0.1, 1 and 10 μg/ml). The plate was kept under the hood overnight, then washed twice. • Wet-coated: INA01-SDV #1 was added at 5× working concentration in 200 ul (for a final concentration of 0.1, 1 and 10 μg/ml). […]"}, "[5]": {"system": "THP-1 cell line", "assay": "Inhibition of cell proliferation, CellTiter-Glo cell viability assay, THP-1", "format": "cell-based", "conditions": "96 hours, from 0 to 20 µg/ml", "experimental": "as §1"}, "[6]": {"system": "MEC-1 cell line (CD71+)", "assay": "Comparative binding on MEC-1 cell line by flow cytometry", "conditions": "biotinylated antibodies, serial dilutions 5 to 0.05 ug/mL, streptavidin Alexa F488", "experimental": "as §2"}}, "note": "“Also recorded” adds a separate entry of the source.", "data": [{"molecule": "B1", "values": [{"measurement": "cellular viability", "setting": "[1]", "result": "Cellular viability was impaired"}, {"measurement": "pathological analysis, Lung", "setting": "[2]; TfR/Tf KI mouse", "result": "Some macrophages"}, {"measurement": "pathological analysis, Spleen", "setting": "[2]; TfR/Tf KI mouse", "result": "Small hematopoiesis"}, {"measurement": "pathological analysis, Heart", "setting": "[2]; TfR/Tf KI mouse", "result": "Some Irregularities in; also recorded: Irregularity in some"}, {"measurement": "pathological analysis, Liver", "setting": "[2]; TfR/Tf KI mouse", "result": "Small hematopoiesis; also recorded: No necrosis; also recorded: No Steatosis; also recorded: No Fibrosis"}, {"measurement": "pathological analysis, Lung", "setting": "[2]; Wild-type mouse", "result": "Some macrophages"}, {"measurement": "pathological analysis, Spleen", "setting": "[2]; Wild-type mouse", "result": "Small hematopoiesis"}, {"measurement": "pathological analysis, Heart", "setting": "[2]; Wild-type mouse", "result": "Some Irregularities in; also recorded: Irregularity in some"}, {"measurement": "pathological analysis, Liver", "setting": "[2]; Wild-type mouse", "result": "Small hematopoiesis; also recorded: No necrosis; also recorded: No Steatosis; also recorded: No Fibrosis"}, {"measurement": "affinity to the CD71+ cell line (binding)", "setting": "[3]", "result": "identical affinity"}, {"measurement": "TNF-α release", "setting": "[4]", "result": "no TNF-α was released"}, {"measurement": "cellular viability", "setting": "[5]", "result": "Cellular viability was impaired"}, {"measurement": "affinity to the CD71+ cell line (binding)", "setting": "[6]", "result": "identical affinity"}]}]}
